Assay results published in the supplement of paper PMC4967469.
pIC50: −log10 of the molar value. Lines with a small IC50 respond at low doses; where the fit passes the top or lowest dose, that dose stands as a limit. For AUC the same curve is integrated over the 256-fold range of doses and scaled to a fraction; values near 1 show little effect. For some assays here: An inferred top dose was calculated from the reported fits.

Assays:
Test in all cases: Viability of human cancer cell lines after 72 h of drug (GDSC screen)
[1] = compound: CO[C@@]12[C@H](COC(N)=O)C3=C(C(=O)C(C)=C(N)C3=O)N1C[C@@H]1N[C@@H]12 [Mitomycin C]; conditions: top dose 16 µM
Procedure: (§1)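 Human cancer cell lines in 384-well plates, medium with 10% serum, drug for 72 h over a 256-fold dose range (nine 2-fold or five 4-fold steps up to the top dose). Adherent lines were fixed and stained with the nucleic acid dye Syto60, suspension lines read with resazurin; signal relative to control wells, capped at 0 and 100%. One two-parameter sigmoid per drug and line, fitted in a mixed model over all curves with the slope shared within a line.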

[2] = compound: O=C(O)CNC(=O)c1c(O)c2ccccc2n(Cc2ccccc2)c1=O [IOX2]; conditions: top dose 0.1 µM; top dose inferred
Procedure: as §1

[3] = compound: COc1cc(Nc2c(C#N)cnc3cc(OCCCN4CCN(C)CC4)c(OC)cc23)c(Cl)cc1Cl [Bosutinib]; conditions: top dose 2 µM
Procedure: as §1

[4] = compound: CO[C@@H]1[C@H](N(C)C(=O)c2ccccc2)C[C@H]2O[C@]1(C)n1c3ccccc3c3c4c(c5c6ccccc6n2c5c31)C(=O)NC4 [Midostaurin]; conditions: top dose 0.512 µM; top dose inferred
Procedure: as §1

[5] = compound: Cc1ccc(C(=O)Nc2cccc(C(F)(F)F)c2)cc1Nc1nc(-c2cccnc2)nc2c1cnn2C [NVP-BHG712]; conditions: top dose 10.24 µM; top dose inferred
Procedure: as §1

| Cell Line | AUC [1] | pIC50 [1] | AUC [2] | pIC50 [2] | AUC [3] | pIC50 [3] | AUC [4] | pIC50 [4] | AUC [5] | pIC50 [5] |
| --- | --- | --- | --- | --- | --- | --- | --- | --- | --- | --- |
| SCC90 (head and neck, adherent) | 0.608 | 5.65 | 0.851 | < 7.00 | 0.899 | < 5.70 | 0.821 | 6.32 | – | – |
| STS-0421 (soft tissue, adherent) | 0.337 | 6.49 | 0.97 | < 7.00 | 0.96 | < 5.70 | 0.836 | 6.38 | – | – |
| NCI-H1793 (lung adenocarcinoma, adherent) | 0.605 | 5.66 | 0.964 | < 7.00 | – | – | 0.883 | < 6.29 | 0.965 | < 4.99 |
| H2803 (mesothelioma, adherent) | 0.533 | 5.90 | 0.933 | < 7.00 | – | – | 0.819 | 6.45 | 0.946 | < 4.99 |
| COR-L105 (lung adenocarcinoma, adherent) | 0.571 | 5.79 | 0.979 | < 7.00 | – | – | 0.809 | 6.47 | 0.749 | 5.40 |
| OAW-28 (ovary, adherent) | 0.402 | 6.30 | 0.963 | < 7.00 | – | – | 0.863 | < 6.29 | 0.817 | 5.11 |
| RERF-GC-1B (stomach, adherent) | 0.649 | 5.56 | 0.983 | < 7.00 | – | – | 0.884 | < 6.29 | 0.814 | 5.19 |
| NCI-H2085 (lung adenocarcinoma, adherent) | 0.689 | 5.45 | 0.979 | < 7.00 | – | – | 0.833 | 6.43 | 0.911 | < 4.99 |
| U031 (kidney, adherent) | 0.356 | 6.41 | 0.961 | < 7.00 | – | – | 0.79 | 6.62 | 0.933 | < 4.99 |
| TCCSUP (bladder, adherent) | 0.392 | – | 0.98 | < 7.00 | – | – | 0.659 | 7.02 | 0.984 | < 4.99 |
| RD (rhabdomyosarcoma, adherent) | 0.565 | 5.82 | 0.976 | < 7.00 | – | – | 0.907 | < 6.29 | 0.771 | 5.37 |
| SW837 (large intestine, adherent) | 0.306 | 6.63 | 0.98 | < 7.00 | – | – | 0.983 | < 6.29 | 0.946 | < 4.99 |
| PL18 (pancreas, adherent) | 0.235 | 6.77 | 0.851 | 7.12 | – | – | 0.785 | 6.66 | 0.958 | < 4.99 |
| A204 (rhabdomyosarcoma, adherent) | 0.21 | 6.98 | 0.967 | < 7.00 | – | – | 0.661 | 6.99 | 0.604 | 5.87 |
| CAMA-1 (breast, adherent) | 0.406 | 6.29 | 0.958 | < 7.00 | – | – | 0.96 | < 6.29 | 0.963 | < 4.99 |
| SW900 (lung squamous cell carcinoma, adherent) | 0.468 | 6.09 | 0.979 | < 7.00 | – | – | 0.885 | < 6.29 | 0.904 | < 4.99 |
| SK-CO-1 (large intestine, adherent) | 0.279 | 6.61 | 0.979 | < 7.00 | – | – | 0.86 | 6.41 | 0.722 | 5.58 |
| BHY (head and neck, adherent) | 0.129 | 7.18 | 0.956 | < 7.00 | – | – | 0.883 | < 6.29 | 0.887 | < 4.99 |
| SW1463 (large intestine, adherent) | 0.584 | 5.70 | 0.974 | < 7.00 | – | – | 0.962 | < 6.29 | 0.949 | < 4.99 |
| ML-1 (thyroid, adherent) | 0.17 | 7.10 | 0.982 | < 7.00 | – | – | 0.467 | 7.59 | 0.975 | < 4.99 |
| GAMG (glioma, adherent) | 0.352 | 6.42 | 0.984 | < 7.00 | – | – | 0.855 | 6.36 | 0.814 | 5.23 |
| LU-99A (large cell lung carcinoma, adherent) | 0.272 | 6.65 | 0.986 | < 7.00 | – | – | 0.852 | 6.41 | 0.919 | < 4.99 |
| OSC-19 (head and neck, adherent) | 0.425 | 6.21 | 0.985 | < 7.00 | – | – | 0.896 | < 6.29 | 0.912 | < 4.99 |
| A673 (rhabdomyosarcoma, adherent) | 0.456 | 6.11 | 0.988 | < 7.00 | – | – | 0.931 | < 6.29 | 0.988 | < 4.99 |

| Cell Line | AUC [1] | pIC50 [1] | AUC [2] | pIC50 [2] | AUC [3] | pIC50 [3] | AUC [4] | pIC50 [4] | AUC [5] | pIC50 [5] |
| --- | --- | --- | --- | --- | --- | --- | --- | --- | --- | --- |
| GP5d (large intestine, adherent) | 0.154 | 6.99 | 0.988 | < 7.00 | – | – | 0.926 | < 6.29 | 0.92 | < 4.99 |
| NCI-H2170 (lung squamous cell carcinoma, adherent) | 0.049 | > 7.20 | 0.986 | < 7.00 | – | – | 0.841 | 6.42 | 0.985 | < 4.99 |
| J82 (bladder, adherent) | 0.038 | > 7.20 | 0.987 | < 7.00 | – | – | 0.951 | < 6.29 | 0.988 | < 4.99 |
| A172 (glioma, adherent) | 0.386 | 6.31 | 0.969 | < 7.00 | – | – | 0.828 | 6.52 | 0.947 | < 4.99 |
| HTC-C3 (thyroid, adherent) | 0.73 | 5.31 | 0.978 | < 7.00 | – | – | 0.906 | < 6.29 | 0.831 | 5.12 |
| SK-LU-1 (lung adenocarcinoma, adherent) | 0.082 | > 7.20 | 0.979 | < 7.00 | – | – | 0.849 | < 6.29 | 0.893 | < 4.99 |
| Hs940-T (melanoma, adherent) | 0.35 | 6.45 | 0.973 | < 7.00 | – | – | 0.459 | 7.62 | 0.984 | < 4.99 |
| H2591 (mesothelioma, adherent) | 0.547 | 5.86 | 0.98 | < 7.00 | – | – | 0.938 | < 6.29 | 0.885 | < 4.99 |
| HPAF-II (pancreas, adherent) | 0.527 | 5.92 | 0.978 | < 7.00 | – | – | 0.978 | < 6.29 | 0.836 | 5.00 |
| GCT (soft tissue, adherent) | 0.732 | 5.36 | 0.977 | < 7.00 | – | – | 0.903 | < 6.29 | 0.989 | < 4.99 |
| SNU-398 (liver, adherent) | 0.487 | 6.04 | 0.983 | < 7.00 | – | – | 0.687 | 6.96 | 0.824 | 5.19 |
| ChaGo-K-1 (non-small cell lung carcinoma, adherent) | 0.554 | 5.84 | 0.981 | < 7.00 | – | – | 0.93 | < 6.29 | 0.944 | < 4.99 |
| NCI-H1915 (large cell lung carcinoma, adherent) | 0.553 | 5.85 | 0.984 | < 7.00 | – | – | 0.953 | < 6.29 | 0.884 | < 4.99 |
| TGBC24TKB (biliary tract, adherent) | 0.435 | 6.17 | 0.986 | < 7.00 | – | – | 0.947 | < 6.29 | 0.924 | < 4.99 |
| BFTC-909 (kidney, adherent) | 0.182 | 6.94 | 0.985 | < 7.00 | – | – | 0.836 | 6.48 | 0.984 | < 4.99 |
| H2818 (mesothelioma, adherent) | 0.823 | 5.01 | 0.984 | < 7.00 | – | – | 0.731 | 6.83 | 0.989 | < 4.99 |
| BEN (non-small cell lung carcinoma, adherent) | 0.482 | 6.05 | 0.985 | < 7.00 | – | – | 0.927 | < 6.29 | 0.949 | < 4.99 |
| BPH-1 (prostate, adherent) | 0.184 | 7.00 | 0.98 | < 7.00 | – | – | 0.863 | < 6.29 | 0.953 | < 4.99 |
| NCI-H1299 (large cell lung carcinoma, adherent) | 0.306 | 6.60 | 0.961 | < 7.00 | – | – | 0.751 | 6.69 | 0.872 | < 4.99 |
| KOSC-2 (head and neck, adherent) | 0.555 | 5.84 | 0.977 | < 7.00 | – | – | 0.933 | < 6.29 | 0.982 | < 4.99 |
| HLE (liver, adherent) | 0.422 | 6.21 | 0.984 | < 7.00 | – | – | 0.829 | 6.53 | 0.949 | < 4.99 |
| PCI-38 (head and neck, adherent) | 0.428 | 6.20 | 0.966 | < 7.00 | – | – | 0.953 | < 6.29 | 0.931 | < 4.99 |
| 769-P (kidney, adherent) | 0.06 | > 7.20 | 0.971 | < 7.00 | – | – | 0.725 | 6.83 | 0.906 | < 4.99 |
| COLO-792 (melanoma, adherent) | 0.574 | 5.80 | 0.978 | < 7.00 | – | – | 0.813 | 6.57 | 0.988 | < 4.99 |
